About 2,200 (0.71%) of roughly 310,000 compounds showed an effect of 50% or more. Effects have a minus sign here. Some of the results follow.

Chain of human ether-à-go-go-related gene (hERG) potassium channel (Q12809 whole entry, looked up): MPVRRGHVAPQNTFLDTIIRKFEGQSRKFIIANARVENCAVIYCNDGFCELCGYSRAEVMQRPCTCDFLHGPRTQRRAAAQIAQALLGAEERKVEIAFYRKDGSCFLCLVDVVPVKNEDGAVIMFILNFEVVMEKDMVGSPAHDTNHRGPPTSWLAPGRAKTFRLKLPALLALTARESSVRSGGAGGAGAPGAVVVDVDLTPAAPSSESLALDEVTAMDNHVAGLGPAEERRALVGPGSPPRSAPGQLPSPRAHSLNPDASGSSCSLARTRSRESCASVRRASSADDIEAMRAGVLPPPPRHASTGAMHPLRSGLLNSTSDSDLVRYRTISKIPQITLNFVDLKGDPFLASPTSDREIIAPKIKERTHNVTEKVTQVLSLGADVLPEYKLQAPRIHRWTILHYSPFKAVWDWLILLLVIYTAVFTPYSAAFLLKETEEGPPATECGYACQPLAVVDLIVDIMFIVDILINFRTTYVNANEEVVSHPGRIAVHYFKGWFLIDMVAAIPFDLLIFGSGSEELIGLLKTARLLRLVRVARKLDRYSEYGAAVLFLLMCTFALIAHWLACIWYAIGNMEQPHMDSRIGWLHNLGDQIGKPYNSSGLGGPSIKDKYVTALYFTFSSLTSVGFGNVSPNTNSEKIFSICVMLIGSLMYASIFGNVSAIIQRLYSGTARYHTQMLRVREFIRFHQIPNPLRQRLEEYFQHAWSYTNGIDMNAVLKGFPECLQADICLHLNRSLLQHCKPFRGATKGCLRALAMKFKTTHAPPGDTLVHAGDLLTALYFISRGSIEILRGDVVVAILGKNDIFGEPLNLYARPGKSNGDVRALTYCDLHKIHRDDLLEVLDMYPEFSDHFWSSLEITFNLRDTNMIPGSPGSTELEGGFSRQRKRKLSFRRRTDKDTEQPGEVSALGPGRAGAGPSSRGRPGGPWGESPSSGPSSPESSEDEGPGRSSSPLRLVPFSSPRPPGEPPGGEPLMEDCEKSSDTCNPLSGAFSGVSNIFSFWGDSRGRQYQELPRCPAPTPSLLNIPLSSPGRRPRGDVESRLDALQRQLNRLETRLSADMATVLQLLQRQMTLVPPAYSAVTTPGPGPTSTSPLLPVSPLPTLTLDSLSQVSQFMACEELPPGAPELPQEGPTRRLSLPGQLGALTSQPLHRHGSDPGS

This test addresses human ether-à-go-go-related gene (hERG) potassium channel (human, UniProt Q12809). The test is described as follows: primary screen, population patch clamp on CHO cells stably expressing hERG.
In the case of `O=C(NCC(=O)c1ccccc1)OCc1ccc([N+](=O)[O-])cc1`, the “hERG current change (%, negative = inhibition) at 1uM” value was 6.14%.

Consider `c1ccc(-c2cn3nc(-c4ccccc4)sc3n2)cc1`, for which the “hERG current change (%, negative = inhibition) at 1uM” value is reported as -4.04%. With `[Br-].c1ccc(N2CC[N+]3(CCCC3)CC2)nc1`, the “hERG current change (%, negative = inhibition) at 1uM” value stood at 4.94%. To `Cc1c(Cl)cccc1NC(=O)NCCCN1CCCC1=O` belongs 8.07%. For `CN1CCCC1CCNS(=O)(=O)c1ccc(Br)cc1` (stereo not shown), the “hERG current change (%, negative = inhibition) at 1uM” value is recorded as -0.753%. In the case of `O=C(CCCc1nc(-c2ccc(Cl)cc2)no1)NCC1CCCO1` (stereo not shown) it was 7.37%; in that of `O=C(CC(NC(=O)c1ccccc1Cl)c1ccccc1)NCCc1ccc(Cl)cc1` (stereo not shown), 10.8%. Turning to `Cc1cc(-c2cc(-c3ccccc3)on2)nc(NC2CCCC2)n1`, the “hERG current change (%, negative = inhibition) at 1uM” value is reported as 17.1%. On to `O=C(C1=C(O)C(=O)N(c2nccs2)C1c1ccccc1)c1cc2ccccc2o1` (stereo not shown), for which the “hERG current change (%, negative = inhibition) at 1uM” value turned out to be 22.2%. As to `O=C(NC(Cc1ccccc1)C(=O)O)/C(=C\c1ccc(F)cc1)NC(=O)c1ccccc1` (stereo not shown), the “hERG current change (%, negative = inhibition) at 1uM” value worked out at 23.8%. Consider `COc1ccc(N=Cc2c(O)c3ccccc3n2C(C)=O)cc1`, for which the “hERG current change (%, negative = inhibition) at 1uM” value was found to be 9.51%.

With `COc1ccc(Cl)cc1NC(=O)CN(C)C(=O)Cn1[nH]c(=O)c2ccccc2c1=O`, the “hERG current change (%, negative = inhibition) at 1uM” value came to 4.24%. For `COc1ccc(-c2cccc(NC(=O)c3ccc4c(c3)OCO4)c2)nn1`, the “hERG current change (%, negative = inhibition) at 1uM” value stood at 12.6%. Regarding `CCN1CCN(C(=O)c2cc3sccc3n2CC(=O)c2ccccc2)CC1`, the “hERG current change (%, negative = inhibition) at 1uM” value was -22.1%. For the molecule `COC(=O)c1cc(S(=O)(=O)NCCCc2ccco2)c[nH]1`, the “hERG current change (%, negative = inhibition) at 1uM” value worked out at 5.52%. Consider `COc1ccccc1NC(=O)Cc1cccs1`, for which the “hERG current change (%, negative = inhibition) at 1uM” value is on record as -0.824%. As for `COc1cccc(C(=O)OCCNC(=O)c2cccnc2)c1.Cl`, the “hERG current change (%, negative = inhibition) at 1uM” value came to 10.5%. As for `CC(C)Cc1nc(N2CCN(C(=O)C(C)C)CC2)c(C#N)c2c1CCC2`, the “hERG current change (%, negative = inhibition) at 1uM” value turned out to be 7.49%. In the case of `O=C(CNc1cc(S(=O)(=O)N2CCOCC2)ccc1N1CCCC1)N1CCc2ccccc21` it was 6.29%. Take `COc1cccc(CN2CCN(Cc3cccc4nonc34)CC2CCO)c1` (stereo not shown): the “hERG current change (%, negative = inhibition) at 1uM” value is given as -24%. In the case of `COCCNC(=O)C(c1ccccc1F)N(C(=O)C(=O)NC1CCCC1)C1CCCCC1` (stereo not shown) it was 3.99%.

For the molecule `Cc1cc(-c2ccccc2)nc(N(C)N)c1S(C)(=O)=O`, the “hERG current change (%, negative = inhibition) at 1uM” value was 12.6%. As to `O=C(CC(SCCO)c1ccc([N+](=O)[O-])cc1)c1ccco1` (stereo not shown), the “hERG current change (%, negative = inhibition) at 1uM” value is listed as -0.704%.

With `OC1(c2ccc(Br)cc2)CCNCC1`, the “hERG current change (%, negative = inhibition) at 1uM” value is reported as -2.9%.

For `COC(=O)CC1Nc2ccccc2SC1=O` (stereo not shown), the “hERG current change (%, negative = inhibition) at 1uM” value was found to be 4.03%. Take `Cc1c(Cl)c(C(=O)NC2CCCC2)nn1C`: the “hERG current change (%, negative = inhibition) at 1uM” value is -5.44%.

For `Cc1c(Cl)cccc1N1C(=O)NC(=O)/C(=C\c2cc(C)n(-c3cccc(C(=O)O)c3C)c2C)C1=O`, the “hERG current change (%, negative = inhibition) at 1uM” value amounted to 11.1%. As to `CCCCC(=O)NC(NC(=O)CCCC)c1ccc(OCC(C)C)c(OC)c1`, the “hERG current change (%, negative = inhibition) at 1uM” value is recorded as 9.77%. As to `CCN1C(=S)N[C@@H](c2cccc(F)c2)C(C(=O)OC)=C1C`, the “hERG current change (%, negative = inhibition) at 1uM” value worked out at 9%. Turning to `Cc1oc(-c2cc3c(cc2Cl)OCO3)nc1CN1CCCC1c1ccc(F)cc1` (stereo not shown), the “hERG current change (%, negative = inhibition) at 1uM” value is reported as -2.74%.

Regarding `CSCC(=O)Nc1ccc(F)c(Cl)c1`, the “hERG current change (%, negative = inhibition) at 1uM” value stood at 15.6%. Regarding `COc1ccc(N2CCN(CC(=O)Nc3sccc3C#N)CC2)cc1`, the “hERG current change (%, negative = inhibition) at 1uM” value amounted to 5.49%. `Cc1cccc(-c2nc3ccc(C(=O)N4CCC5(CC4)OCCO5)cc3nc2-c2cccc(C)c2)c1`: the “hERG current change (%, negative = inhibition) at 1uM” value is 17.4%. In the case of `S=C(Nc1ccc2c(c1)OCO2)Nc1ccc2c(c1)OCO2` it was 13.4%; in that of `COc1ccc(CCNC(=O)c2cn(C)c3ccc(S(=O)(=O)N4CCOCC4)cc3c2=O)cc1OC`, 16.8%. For `Cc1ccc(C2N(C)C(=O)c3ccccc3N2C)cc1` (stereo not shown), the “hERG current change (%, negative = inhibition) at 1uM” value is recorded as 9.12%.

Turning to `COc1ccc(N2CC(C(=O)NC3CCSC3=O)CC2=O)cc1` (stereo not shown), the “hERG current change (%, negative = inhibition) at 1uM” value was found to be 7%. In the case of `O=[N+]([O-])c1ccc(CN2CCCCCC2)s1` it was 8.77%. As to `Cc1nn(C)c(C)c1CN(C)C(=O)C1c2ccccc2Oc2ccccc21`, the “hERG current change (%, negative = inhibition) at 1uM” value is reported as -2.61%.

For the molecule `COc1cccc(C(=O)Nc2ccccc2N2CCCC2)c1`, the “hERG current change (%, negative = inhibition) at 1uM” value is -0.367%. For the molecule `Cc1ccc(O)c(-c2cc(-c3cccc(Br)c3)n[nH]2)c1`, the “hERG current change (%, negative = inhibition) at 1uM” value was found to be 7.07%.

In the case of `Cc1cc(/C=N/NC(N)=S)c(C)n1-c1ccc(Cl)c(Cl)c1`, the “hERG current change (%, negative = inhibition) at 1uM” value is 2.25%.

As for `C=C(C)c1cccc(C(C)(C)NC(=O)Nc2ncccn2)c1`, the “hERG current change (%, negative = inhibition) at 1uM” value is recorded as -1.24%. Consider `FC(F)(F)c1cnc(C(c2ccccn2)c2ncn[nH]2)c(Cl)c1` (stereo not shown), for which the “hERG current change (%, negative = inhibition) at 1uM” value is on record as 8.81%.

In the case of `COc1ccc(/C(N)=N/OC(=O)c2cccc([N+](=O)[O-])c2C)cc1`, the “hERG current change (%, negative = inhibition) at 1uM” value is on record as -7.56%. Regarding `O=C(O)[C@H]1CCCC[C@H]1C(=O)Nc1ccc(S(=O)(=O)N2CCCCC2)cc1`, the “hERG current change (%, negative = inhibition) at 1uM” value turned out to be 2.43%.

Values taken from publication PMC4336329 (PLoS ONE, 2015).
